Among all 310,000 compounds or so, about 14,000 (4.5%) showed an effect of 50% or more. The effect is printed as a negative number. The list shows a part of the results.
The compounds below were run against human ether-à-go-go-related gene (hERG) potassium channel (human, UniProt Q12809) (assay: primary screen, population patch clamp on CHO cells stably expressing hERG).
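Also: peak tail current of the secondary pulse compared with the same well before compound.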

Chain of human ether-à-go-go-related gene (hERG) potassium channel (Q12809 whole entry, looked up): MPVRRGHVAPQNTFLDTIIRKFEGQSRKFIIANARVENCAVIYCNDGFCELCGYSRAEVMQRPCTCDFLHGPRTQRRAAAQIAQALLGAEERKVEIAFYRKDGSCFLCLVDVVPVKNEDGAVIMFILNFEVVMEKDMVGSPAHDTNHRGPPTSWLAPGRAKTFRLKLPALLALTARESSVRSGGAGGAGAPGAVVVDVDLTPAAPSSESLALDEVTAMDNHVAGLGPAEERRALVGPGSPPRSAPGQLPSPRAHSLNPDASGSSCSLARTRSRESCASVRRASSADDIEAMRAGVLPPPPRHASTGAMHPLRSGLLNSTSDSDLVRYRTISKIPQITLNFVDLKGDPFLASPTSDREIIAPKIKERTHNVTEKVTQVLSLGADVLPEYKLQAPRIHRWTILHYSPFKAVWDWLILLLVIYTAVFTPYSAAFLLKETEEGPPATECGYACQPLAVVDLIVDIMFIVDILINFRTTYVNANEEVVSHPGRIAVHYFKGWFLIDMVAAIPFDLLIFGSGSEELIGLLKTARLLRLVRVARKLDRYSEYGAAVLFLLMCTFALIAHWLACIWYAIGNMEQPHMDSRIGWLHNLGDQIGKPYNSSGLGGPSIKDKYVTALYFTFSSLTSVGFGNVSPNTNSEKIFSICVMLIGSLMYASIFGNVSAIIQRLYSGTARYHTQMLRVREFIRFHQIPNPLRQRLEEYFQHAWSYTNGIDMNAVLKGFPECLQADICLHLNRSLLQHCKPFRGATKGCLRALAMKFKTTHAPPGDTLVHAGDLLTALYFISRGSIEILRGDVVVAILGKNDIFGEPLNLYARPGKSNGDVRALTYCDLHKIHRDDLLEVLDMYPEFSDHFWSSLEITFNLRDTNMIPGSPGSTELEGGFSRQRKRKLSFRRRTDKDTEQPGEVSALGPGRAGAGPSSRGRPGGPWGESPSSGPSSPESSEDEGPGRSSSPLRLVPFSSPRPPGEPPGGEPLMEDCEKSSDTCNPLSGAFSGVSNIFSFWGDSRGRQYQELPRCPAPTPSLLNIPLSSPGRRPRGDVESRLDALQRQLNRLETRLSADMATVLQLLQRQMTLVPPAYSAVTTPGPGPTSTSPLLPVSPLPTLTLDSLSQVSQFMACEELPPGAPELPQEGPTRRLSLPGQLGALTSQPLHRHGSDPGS

Structure (SMILES) | hERG current change (%, negative = inhibition) at 10uM [%]
COc1ccc(Cl)cc1NC(=O)Cn1c(C)csc1=O | 0.644
COc1cccc(/C=N/n2c(=S)n(C)c3cc(C)c(C)cc32)c1OC | 3.15
CSC[C@H](NC(=O)COc1cc2c(c3oc(=O)cc(C)c13)CCC(C)(C)O2)C(=O)O | 13.1
Cc1ccc(C(C)C)c(OCCN2C(=O)NC(C)(C)C2=O)c1 | -2.69
CCOC(=O)C1CCN(C(=O)/C=C/c2cccs2)CC1 | 23
NC(=O)N/N=C/c1c(F)cccc1F | 7.11
O=C(Cn1c(C(=O)N2CCN(C3CCCC3)CC2)cc2sccc21)c1ccccc1 | -76.1
Cc1ccc(NC(=O)N2CCCC2C(=O)NCC2CCCO2)cc1 (stereo not shown) | 28.4
CCC(Sc1nc(C)cc(C)n1)C(=O)Nc1nccs1 (stereo not shown) | 14.9
O=C(c1ccc(Br)o1)N(Cc1ccccc1)c1ccccn1 | -19.3
O=C(CN(Cc1ccc(F)cc1)C(=O)CCC(=O)Nc1nccs1)NCc1ccccc1 | -35.6
COc1ccc(NC(=O)C2CCCN2C(=O)NC2CCCCC2)c(OC)c1 (stereo not shown) | 5.13
O=C(COc1cc(Cl)c(Cl)cc1Cl)Nc1ccc([N+](=O)[O-])cc1Cl | 11.9
CCc1noc(C)c1C(=O)N1CCCC(C(=O)c2cc(F)ccc2F)C1 (stereo not shown) | -41.2
CN(C)S(=O)(=O)n1cnc([C@@H]2[C@H]3C(=O)OC[C@@H]3C[C@@]23N=CN(Cc2ccccc2)C3=O)c1 | 1.5
COc1ccc(C(=O)NCc2nnc(SCC(=O)N3CCCCC3)o2)cc1OC | 3.19
O=C(c1ccco1)N1CCN(Cc2ccc(Cl)cc2)CC1 | -14
O=C(NNC(=O)c1ccccc1O)c1ccc(Cl)c(S(=O)(=O)N2CCCCC2)c1 | -22.5
CC/C(=C\C=C\[C@@H]1C=C[C@@H]2CCC[C@H]2[C@@H]1C(=O)c1ccc[nH]1)[C@@H]1O[C@@H]([C@@H](C)C(=O)[O-])CC[C@@H]1C.[Na+] | -7.05
CCOC(=O)CCc1c(C)nc2cc(-c3ccc(Cl)cc3)[nH]n2c1=O | -7.09
CC(=O)Nc1ccc(S(=O)(=O)c2ccc([N+](=O)[O-])cc2)cc1 | -32.3
CCN(CC)c1ccc(NS(=O)(=O)c2ccc(OC)cc2)cc1 | -6.12

Structure (SMILES) | hERG current change (%, negative = inhibition) at 10uM [%]
O=[N+]([O-])c1ccc(SCCc2ccccn2)cc1 | -44.3
COCCn1nnnc1C(c1ccc(C(F)(F)F)cc1)N1CCOCC1 (stereo not shown) | 12.5
Cc1nnc(NC(=O)CSc2ncnc3c2cnn3-c2ccccc2C)s1 | 4.47
COc1ccc(CNC(=O)CN(c2ccccc2)S(=O)(=O)N(C)C)cc1 | 1.53
CCC(C)Cn1c([O-])cc2nn(-c3nc4ccccc4s3)c(=O)c-2c1C.[Na+] (stereo not shown) | -21
N#CCCn1cc(C(=O)O)c(-c2cccc([N+](=O)[O-])c2)n1 | 13.8
C/C(=N\NC(=O)c1cc(O)cc(O)c1)c1ccc(NC(=O)Cc2ccccc2)cc1 | 14.2
O=C(NCCN1C(=O)S/C(=C\c2ccc(F)cc2)C1=O)C1CCN(S(=O)(=O)c2cccs2)CC1 | -7.1
Cc1ccc(Cn2c(-n3nc(C)cc3C)nc3c2c(=O)[nH]c(=O)n3C)cc1 | -12.9
CN(C(=O)C(=O)c1cn(CC(=O)N2CCCC2)c2ccccc12)C1CCCCC1 | 1.82
O=C(Nc1cc(F)c(Br)cc1F)c1ccc(Cl)cc1 | 15.3
O=C1CC[C@@H](OCc2ccccc2)CCN1CC[C@H](Sc1ccccc1)c1ccccc1 | -2.38
O=C1CC2(CCOCC2)Oc2ccc3ccccc3c21 | -6.48
O=C(NCC1(O)CCCCC1)C1CCC(=O)N(CCc2ccccc2)C1 (stereo not shown) | 35
CC(C)(C)NC(=O)c1ccccc1NC(=O)C1CCCO1 (stereo not shown) | -0.0567
CCOc1ccc(CN2CCCN(C)CC2)cc1 | -17
CCOc1ccc(CNC(=O)C2CCN(S(=O)(=O)CC)CC2)cc1OC | -2.72
C[C@@H](C(=O)NCCc1c[nH]c2ccccc12)[C@@H]1C[C@@]1(C)[C@@H](NC(=O)OCc1ccccc1)c1ccccc1 | 25.5
CCCCn1c(N)c(N(CC(C)C)C(=O)C2CCN(S(=O)(=O)c3ccc(C)cc3)CC2)c(=O)[nH]c1=O | 12.5
Cc1ccc(/C=C2/C(=O)N(c3ccccc3)C(=S)N2C)o1 | 2.75
Cn1nnc(NC(=O)c2ccc([N+](=O)[O-])cc2Cl)n1 | -2.06
CN(CCC1CCOCC1)C(=O)CC1C(=O)NCCN1Cc1ccccc1F (stereo not shown) | 4.08

Structure (SMILES) | hERG current change (%, negative = inhibition) at 10uM [%]
COc1ccc(/C=C2\CCn3c2nc2cc(C(=O)O)ccc2c3=O)cc1OC | 6.7
CCOc1cccc(=[NH+]C2CCCCC2)c2c(C)n(C)c(C)c12.[O-][Cl+3]([O-])([O-])[O-] | -70.3
COc1cc([N+](=O)[O-])cc2sc(NC(=O)C(C)(C)C)nc12 | 6.2
COc1cccc(CNc2ccc3c(c2)ncn3C)c1OC | 19.9
O=C(O)/C=C/C(=O)NNC(=O)c1cc(-c2ccccc2)n[nH]1 | 24.1
CCn1c(CNc2ccc(C)cc2)nnc1SCC(N)=O | 9.46
Cc1ccc(-n2ncc3c2CC(C)(C)CC3NC(=O)CCc2cnn(C)c2)cc1 (stereo not shown) | -52.6
CC(C)c1cc(C(=O)NNC(=S)NC2CCCCC2)cs1 | 4.74
CCc1ccc(-c2nc(CN3CCCC(C(=O)NCCc4ccc(OC)c(OC)c4)C3)c(C)o2)cc1 (stereo not shown) | -50.5
C=CCn1c(SCC(=O)Nc2cc(C)c(Cl)cc2OC)nnc1-c1ccco1 | -23.6
C(=N\NC1=NCCCCC1)/c1c[nH]c2ccccc12.Cl | -24.3
COC(=O)c1cn(CC(=O)N2C(C)CCCC2C)c2ccccc12 (stereo not shown) | -0.901
O=C(CSc1nc2[nH]ncc2c(=O)[nH]1)NCc1ccccc1Cl | 6.86
Cc1ccc(-n2c(O)c(C=NC3CCS(=O)(=O)C3)c3ccccc3c2=O)cc1 (stereo not shown) | -3.54
CON/C=C(\C=Nc1ccc(F)cc1)c1ncc(C(F)(F)F)cc1Cl | 6.26
CCOC(=O)COc1ccc2ccccc2c1/C=C/[N+](=O)[O-] | -0.943
CC(=O)N(C)c1ccc(NS(=O)(=O)c2cccc3nsnc23)cc1 | 17
COc1ccc(NC(=O)N2CCC(Cc3ccccc3)CC2)cc1 | -3.45
Cc1ccc(OCC(=O)Nc2ccc(NC(=O)c3ccccc3)cc2)cc1C | 19
O=C(NCC(c1cccnc1)N1CCN(c2ccc(F)cc2)CC1)c1ccccc1 (stereo not shown) | -40.2
Cc1[nH]c(=O)[nH]c(=O)c1/C=N/NC(=O)CCNC(=O)OC(C)(C)C | -4.36
NC(=O)C1CCN(C(=O)CCn2c(=O)oc3ccccc32)CC1 | 0.894

Structure (SMILES) | hERG current change (%, negative = inhibition) at 10uM [%]
O=C(COC(=O)/C=C/c1cccc(Cl)c1)NC(=O)NCc1ccccc1 | -11.7
CCC(c1nnc(SCC(=O)Nc2ccc(C(=O)N(C)C)cc2)n1Cc1ccccc1)N(C)C (stereo not shown) | 1.55
COc1cc(OC)cc(OCC(O)Cn2ccnc2C)c1 (stereo not shown) | -0.281
COc1ccc(/C=N/Nc2c(Cl)cc(Cl)cc2Cl)cc1CN1CCOCC1 | -3.48
CC1(C)O[C@@H]2[C@H](O1)[C@@H](CO)O[C@H]2n1cnc2c(N)ncnc21 | 12.3
Cc1ccc(C(=O)COc2nc(C)cc(C)c2C#N)cc1 | -7.95
Cc1ccc(-c2cc(C(=O)NCc3cccs3)no2)cc1 | 9.41
COc1cccc(/C=N/NC(=O)c2cc(-c3cccn3C)n[nH]2)c1O | -3.54
CCc1cc(-c2n[nH]c(C)c2Oc2ccc(C(C)C)cc2)c(O)cc1O | -0.439
Cc1cccc(NC2=NC(=S)N(c3ccc(C(=O)O)cc3)C23CCCCC3)c1 | 17.5
COC(=O)C(Cc1ccc(OC(=O)c2ccc(Cl)cc2)cc1)N1Cc2ccccc2C1=O (stereo not shown) | 7.39
CCOc1ccc2nc(SCC(=O)N(C)C)[nH]c2c1 | 11.4
Cc1nn(C)cc1CNC(=O)C1(C)CC1(Cl)Cl (stereo not shown) | 19.6
COc1ccc(CCNS(=O)(=O)c2ccccc2)cc1OC | 10.6
COc1ccc(CCN2C(=O)C3C4CC(C5C(C(N)=O)=NOC45)C3C2=O)cc1OC (stereo not shown) | -2.12
COc1ccc(CCn2c(=N)c(C(=O)NC3CCCC3)cc3c(=O)n4ccccc4nc32)cc1OC | -79.2
CS(=O)(=O)C1=C(O)C(=O)N(CCCC(=O)O)C1c1ccccc1F (stereo not shown) | 10.7
CC(=O)Nc1ccc(S(=O)(=O)NC(CC(=O)NCCCN2CCOCC2)C(C)C)cc1 (stereo not shown) | 3.74
Cc1ccc(S(=O)(=O)N(Cc2cccnc2)Cc2cc3ccccc3[nH]c2=O)cc1 | -19.5

Reference: PMC4336329 (PLoS ONE, 2015)
